According to PubChem BioAssay AID485294 (National Center for Advancing Translational Sciences (NCATS), 2010):
In all, about 370,000 compounds went through this assay and about 150 (0.041%) were called active. Inconclusive means that the source gave no clear call. Such entries were picked first, then a sample of the others. Calls follow the shape of the dose curve; as a rule, active = well fitted inhibition curve with a large enough effect; inconclusive = small, poorly fitted or top-dose-only effect; inactive = flat fitted curve, though single readings scatter. Potencies of inconclusive entries are left out as doubtful fits.

Biological target: Beta-lactamase (Escherichia coli (strain K12)) (UniProt P00811)
Experiment: qHTS Inhibitors of AmpC Beta-Lactamase (assay with detergent); also: nearly all actives have a fitted effect of over 25% in size;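 as to activity change, negative = inhibition: 0% = no-compound wells and -100% = no-enzyme wells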
Details: AmpC hydrolysis of nitrocefin, absorbance 480 nm, 0.01% Triton; activity change, negative = inhibition: at 114 µM (top of the series)
Procedure, shortened: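 20 mM phosphate pH 7.0 + 0.01% (detergent screen) or 0.0001% Triton X-100; 5.3 nM AmpC reagent; cpd preinc 15 min RT; nitrocefin (800 uM stock) to start; A480 q20 s × 4 min; Activity was normalised to no-enzyme and no-compound control wells.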
Potency is read from the fitted curve at half-maximal effect; tags tell the direction and shape of the fitted curve.

Sequence of UniProt P00811 (P00811 whole entry, looked up): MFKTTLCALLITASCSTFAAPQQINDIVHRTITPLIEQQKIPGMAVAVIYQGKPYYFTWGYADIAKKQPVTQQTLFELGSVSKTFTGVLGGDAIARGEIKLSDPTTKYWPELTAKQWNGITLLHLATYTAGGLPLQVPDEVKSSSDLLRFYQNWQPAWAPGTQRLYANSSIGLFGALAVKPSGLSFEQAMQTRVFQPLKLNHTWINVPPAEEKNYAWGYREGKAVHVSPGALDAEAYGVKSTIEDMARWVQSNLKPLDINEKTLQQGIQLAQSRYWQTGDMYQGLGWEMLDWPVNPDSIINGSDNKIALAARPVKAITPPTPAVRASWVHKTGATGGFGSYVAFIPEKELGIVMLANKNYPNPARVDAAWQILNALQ

Row | SMILES | Potency | activity change, negative = inhibition
1 | COc1cnn(-c2cccc(C)c2)c(=O)c1Cl | inconclusive [inhibitor, full curve, poor fit] | –
2 | O=C(CSc1nnc2scc(-c3ccccc3)n12)N1CCCc2ccccc21 | inconclusive [inhibitor, full curve, poor fit] | –
3 | CCN(CC)S(=O)(=O)c1ccc(Cl)c(NC(=O)COc2ccc(OC)cc2[N+](=O)[O-])c1 | inconclusive [inhibitor, full curve, poor fit] | –
4 | COCCNC(=O)CCn1c(=O)c2cc(OC)c(OC)cc2n(CC(=O)Nc2ccccc2C)c1=O | inconclusive [inhibitor, single point] | –
5 | CCn1nnnc1SCC(=O)Nc1ccc(OC)cc1 | inconclusive [inhibitor, partial curve] | –
6 | O=C(NC1CCCCC1)C(c1ccco1)N(Cc1cccnc1)C(=O)C1COc2ccccc2O1 (stereo unspecified) | – | inactive: 4.55%
7 | CN(C)C(=O)c1ccc(-n2cccn2)nc1 | inconclusive [inhibitor, full curve] | –
8 | Cc1cccc(C)c1OCC(=O)NNC(=O)Nc1ccc(Cl)cc1 | inconclusive [inhibitor, single point] | –
9 | COc1ccc2[nH]c(=O)c(CN(C(=O)c3cccnc3)c3ccccc3OC)cc2c1 | inconclusive [inhibitor, full curve, poor fit] | –
10 | CCc1ccc(OCCSc2nc3ccccc3n2CCC(=O)O)cc1 | inconclusive [inhibitor, full curve] | –
11 | O=C(CN(Cc1ccc(Cl)cc1)S(=O)(=O)c1ccccc1)NCC1CCCO1 (stereo unspecified) | inconclusive [inhibitor, partial curve, poor fit] | –
12 | C/C(=N\NC(N)=S)c1ccc(Cl)s1 | inconclusive [inhibitor, full curve] | –
13 | CN(CC(=O)Nc1ccc(F)cc1)C(=O)COC(=O)C1CCN(c2ccc(C(F)(F)F)cn2)CC1 | inconclusive [inhibitor, full curve, poor fit] | –
14 | CC1=C(C(=O)OCc2ccccc2)N2C(=O)[C@@H](NC(=O)COc3ccccc3)[C@H]2SC1 | inconclusive [inhibitor, single point] | –
15 | Nc1nnc(SCC(=O)Nc2ccc(N3CCOCC3)cc2)s1 | – | inactive: 2.1%
16 | O=C(NCCCN1CCCC1)C1CCN(C(=O)c2cc3sccc3n2Cc2ccc(F)cc2)CC1 | – | inactive: -11.8%
17 | COc1ccc(S(=O)(=O)N2CCCC(C(=O)NCc3ccncc3)C2)cc1Cl (stereo unspecified) | inconclusive [inhibitor, full curve, poor fit] | –
18 | CC(NCC(O)COC1CCC(C(C)(C)C)CC1)c1ccccc1 (stereo unspecified) | inconclusive [inhibitor, full curve, poor fit] | –
19 | COc1cccc(NC(=S)N2CCN(c3ccccn3)CC2)c1 | inconclusive [inhibitor, full curve, poor fit] | –
20 | CCOC(=O)c1c(C)nc2ccccc2c1-c1ccccc1 | inconclusive [inhibitor, full curve, poor fit] | –
21 | N#CCSc1nccc(-c2cc(Cl)sc2Cl)n1 | inconclusive [inhibitor, full curve, poor fit] | –
22 | COc1ccc(Br)cc1CNC(C)c1ccccc1 (stereo unspecified) | inconclusive [inhibitor, partial curve, poor fit] | –

Row | SMILES | Potency | activity change, negative = inhibition
23 | COc1cc(/C=N\NC(=O)c2ccc(C)nc2)ccc1OC(=O)c1ccc2c(c1)OCO2 | inconclusive [inhibitor, full curve, poor fit] | –
24 | COc1ccc(CNc2cc(C)ccc2C)c(OC)c1OC | – | inactive: 0.476%
25 | C=CCn1c(=O)/c(=C/c2cc(OC)c(OC)c(OC)c2)s/c1=C(/C#N)c1nc2ccccc2n1C | inconclusive [inhibitor, full curve, poor fit] | –
26 | Cc1ccccc1Nc1nc(-c2sc(NC(=O)c3ccccc3)nc2C)cs1 | – | inactive: -7.84%
27 | Cc1ccc(C2CCN(C(=O)Nc3ccc(Cl)cc3)C2)cc1 (stereo unspecified) | – | inactive: 3.15%
28 | c1csc(CN2CCNCC2)c1 | inconclusive [inhibitor, partial curve, poor fit] | –
29 | COc1ccccc1/C=C/CN1CCC(n2nccc2NC(=O)C2CC2)CC1 | inconclusive [inhibitor, full curve, poor fit] | –
30 | COc1cc(NC(=O)c2cccs2)c(C(=O)OCC(=O)c2cc(C)n(-c3ccccc3)c2C)cc1OC | – | inactive: -3.45%
31 | O=C(COc1coc(CN2CCN(c3ccccc3)CC2)cc1=O)N1CCc2ccccc21 | inconclusive [inhibitor, full curve] | –
32 | CC(=O)Nc1cccc(C(=O)OC(C)C(=O)Nc2ccc(S(=O)(=O)N3CCCC3)cc2)c1 (stereo unspecified) | inconclusive [inhibitor, partial curve, poor fit] | –
33 | CCOc1ccc(/C=C2/C(=O)N(c3ccc(OC)cc3)C(=S)N2CC(=O)OC)cc1OCC | – | inactive: 2.04%
34 | CC1C=CCC2C(=O)N(c3cccc(C(=O)Nc4ccc(F)cc4)c3)C(=O)C12 (stereo unspecified) | inconclusive [inhibitor, full curve, poor fit] | –
35 | CC(=O)Nc1ccc(S(=O)(=O)N(C)CC(=O)OC2CCCCC2=O)cc1 (stereo unspecified) | inconclusive [inhibitor, full curve, poor fit] | –
36 | Cn1nc(CC(=O)Nc2cccnc2N2CCOCC2)c2ccccc2c1=O | inconclusive [inhibitor, full curve, poor fit] | –
37 | CCC(CO)Oc1cc(NC(=O)c2ccccc2)c2ncn(C(C)C)c2c1 (stereo unspecified) | – | inactive: 5.88%
38 | Cc1ccc(S(=O)(=O)N2CCC(=O)N(CCOCc3ccc(Cl)cc3)CC2)cc1 | inconclusive [inhibitor, full curve, poor fit] | –
39 | O=C(NC1CC2CCCC(C1)N2C(=S)Nc1ccc(Cl)cc1)C1CC1 (stereo unspecified) | – | inactive: -12%
40 | COC(=O)Cn1c(CN2CCOCC2)nc2c1c(=O)[nH]c(=O)n2C | inconclusive [inhibitor, partial curve, poor fit] | –
41 | Cc1nnc(SCC(=O)Nc2nccs2)[nH]c1=O | inconclusive [inhibitor, partial curve, poor fit] | –
42 | CN1CCN(CC#Cc2ccccc2)CC1CCO (stereo unspecified) | – | inactive: -14.3%
43 | Cc1cccc(OCc2nc(CC(=O)Nc3ccc(C)cc3C)cs2)c1 | – | inactive: 1.16%
44 | CCNC(=O)Oc1ccc(-c2csnn2)cc1 | – | inactive: 16.9%

Row | SMILES | Potency | activity change, negative = inhibition
45 | CCOC(=O)N1CCC(NC(=O)c2cc(C(=O)NC3CCCC3)ccc2CO)CC1 | inconclusive [inhibitor, full curve, poor fit] | –
46 | CCOC(=O)c1sc(NC(=O)CSc2nccn2C)nc1C | – | inactive: 1%
47 | CC(C)N(C(=O)CSc1nnc(C2CC2)n1C1CC1)c1ccccc1 | – | inactive: -11.1%
48 | Cc1cccc(C)c1OCc1cc(C(=O)N(C)Cc2nc3ccccc3[nH]2)no1 | – | inactive: -1.58%
49 | O=C(CN1CC(c2ccccc2)CC1=O)OCc1ccccc1F (stereo unspecified) | – | inactive: -3.11%
50 | CCOC(=O)Nc1ccc2c(c1)N(C(=O)CCN(CC)CC)c1ccccc1CC2 | inconclusive [inhibitor, full curve, poor fit] | –
51 | Cc1ccc(NC(=O)CN(C)C(=S)NC2CC2)cc1 | inconclusive [inhibitor, single point] | –
52 | Cc1cccc(CN2CCN(Cc3ccc(Cl)cc3)CC2)c1 | inconclusive [inhibitor, full curve, poor fit] | –
53 | Fc1ccc(COc2ccc3ccccc3c2CNc2nn[nH]n2)cc1 | inconclusive [inhibitor, full curve, poor fit] | –
54 | CN1CCCN(C(=O)COc2cccc(C(F)(F)F)c2)CC1 | – | inactive: -12.6%
55 | C#CCOCCOCCOCCNc1nc(N2CCN(C(=O)[C@H]([C@@H](C)CC)n3cc(CCCN=C(N)N)nn3)CC2)nc(N2CCN(C(=O)[C@H]([C@@H](C)CC)n3cc(CCCN=C(N)N)nn3)CC2)n1 | inconclusive [inhibitor, partial curve, poor fit] | –
56 | COC(=O)c1ccc2ccccc2c1OC1OC(CO)C(O)C(O)C1NC(C)=O (stereo unspecified) | inconclusive [inhibitor, full curve, poor fit] | –
57 | COc1ccccc1CNS(=O)(=O)c1cc(C(=O)NCc2ccccn2)c(Cl)cc1Cl | inconclusive [inhibitor, partial curve, poor fit] | –
58 | CCOC(=O)c1c(S(=O)(=O)N2CCCC(C(=O)NCc3ccccc3Cl)C2)c(C)n(C)c1C (stereo unspecified) | – | inactive: -7.22%
59 | CCOC(=O)c1ccc(NC(=O)c2cccc(S(=O)(=O)N3CCOCC3)c2)cc1 | inconclusive [inhibitor, full curve, poor fit] | –
60 | Cc1cccc2cc(CN(Cc3ccco3)C(=O)c3ccncc3)c(=O)[nH]c12 | – | inactive: -2.42%
61 | CCOc1ccccc1NC(=O)CSc1nc2c(sc3ccccc32)c(=O)n1CCCC(=O)NC1CCCC1 | – | inactive: -6.42%
62 | Cc1ccc(-n2c(SCC(=O)N/N=C/c3ccccc3C(=O)O)nnc2-c2ccc(Cl)cc2)cc1 | inconclusive [inhibitor, single point] | –
63 | Cc1cc(=O)[nH]c2cc(O)ccc12 | inconclusive [inhibitor, full curve] | –
64 | O=C(Cc1cn2ccsc2n1)Nc1cccc2cnccc12 | inconclusive [inhibitor, partial curve, poor fit] | –
65 | Cc1ccc(NC(=O)C(C)OC(=O)c2ccc(NS(=O)(=O)c3ccc(F)c(F)c3)cc2)cc1 (stereo unspecified) | inconclusive [inhibitor, single point] | –
66 | CC(CN1C(C)CCCC1C)OC(=O)c1ccc(F)cc1 (stereo unspecified) | – | inactive: -10.4%
